Results as given in PubChem BioAssay AID1347428 (National Center for Advancing Translational Sciences (NCATS), 2020).
Out of some 91,000 compounds screened, about 290 (0.32%) were called active. This list was built around the results that the source calls inconclusive (neither active nor inactive); the mix of calls is not that of the screen. Calls come from the whole dose curve; as a rule, active = well fitted inhibition curve with a large enough effect; inconclusive = small, poorly fitted or top-dose-only effect; inactive = no such curve, though single readings can be large or run the other way. Where the call is inconclusive, the potency comes from a doubtful curve fit.

target: Single-stranded DNA cytosine deaminase (Homo sapiens) (UniProt Q9GZX7); experiment: Primary qHTS assay for inhibitors of Activation Induced Cytidine Deaminase (AID): AID signal; conditions: AID deamination FRET fluorescence, UDG-coupled, 4 h; activity change, negative = inhibition: at 115 µM (top of the series); note: nearly all actives have a fitted effect of over 25% in size
UniProt Q9GZX7, sequence (Q9GZX7 whole entry, looked up): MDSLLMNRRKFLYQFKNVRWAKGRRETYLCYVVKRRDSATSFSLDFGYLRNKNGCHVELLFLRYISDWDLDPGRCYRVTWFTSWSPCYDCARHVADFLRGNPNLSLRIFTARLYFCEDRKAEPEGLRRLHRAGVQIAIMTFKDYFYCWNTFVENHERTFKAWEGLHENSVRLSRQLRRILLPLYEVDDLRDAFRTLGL
% is set by controls: 0 for no effect and ±100 for the full control effect; potency is the fitted concentration of half-maximal effect; tags give direction and shape of the fitted curve.

SMILES | Potency | activity change, negative = inhibition
COc1ccc(CN2CCN(c3ncnc4sc5c(c34)CCCC5)CC2)cc1F | inconclusive: 35.5 µM [inhibitor, partial curve] | 
COc1ccc2c(c1)Cc1sc(NC(=O)c3cccc(Cl)c3)nc1-2 |  | inactive: 246%
Cc1cccc(Nc2nc(-c3ccccc3)cs2)c1C |  | inactive: -4.22%
Cc1ccc(N2CC(NC(=O)Cc3ccc(F)cc3)CC2=O)cc1C (stereo not given) | inconclusive: 15.8 µM [inhibitor, full curve, poor fit] | 
Cc1cccc(Cc2c(C)nc3nc(SCC(=O)NC4CCCCC4)nn3c2C)c1 | inconclusive: 89.1 µM [inhibitor, single point] | 
CCCCC1CCC[S+](c2cc(O)ccc2O)C1 (stereo not given) | inconclusive: 63.1 µM [inhibitor, single point] | 
Cc1ccc(Nc2nc3ccccc3nc2NS(=O)(=O)c2ccc3c(c2)OCCO3)cc1 |  | inactive: -14.7%
Cc1cccc(NC(=O)CSc2nnc(COc3ccc(Cl)cc3)n2Cc2ccco2)c1 | inconclusive: 28.2 µM [inhibitor, partial curve, poor fit] | 
COc1cc(C(c2c(C)[nH][nH]c2=O)c2c(C)[nH][nH]c2=O)ccc1OCc1ccccc1Cl | inconclusive: 50.1 µM [inhibitor, partial curve, poor fit] | 
Cc1cccc(CCNC(=O)c2nc(-c3ccc(Cl)cc3)n3c2CCCCC3)c1 | inconclusive: 39.8 µM [inhibitor, single point] | 
Cc1cccc(-c2noc(C3CC(=O)N(c4ccc5c(c4)OCCO5)C3)n2)c1 (stereo not given) | inconclusive: 31.6 µM [inhibitor, single point] | 
COc1ccc(NC(=O)C2CCCN(c3nnc(-n4c(C)ccc4C)s3)C2)cc1OC (stereo not given) |  | inactive: 3.08%
Cc1cccc(C(=O)Nc2ccc(C(=O)OCc3cc(=O)n4ccsc4n3)cc2)c1 | inconclusive: 50.1 µM [inhibitor, partial curve, poor fit] | 
CCC(Sc1nncn2c1cc1sccc12)C(=O)Nc1cccc(OC)c1 (stereo not given) | inconclusive: 89.1 µM [inhibitor, single point] | 
COc1ccccc1NC(=O)CSCc1cc(=O)c2c(C)cc(C)cc2[nH]1 | inconclusive: 17.8 µM [inhibitor, full curve, poor fit] | 
COc1ccc(S(=O)(=O)Oc2ccc3oc(=O)c(-c4ccc(OC)c(OC)c4)c(C)c3c2)cc1 |  | inactive: -1.36%
Fc1ccc(CNc2ncnc3c2c(-c2ccccc2)cn3-c2ccccc2)cc1 | inconclusive: 11.2 µM [inhibitor, partial curve, poor fit] | 
Cc1ccc(NC(=O)CSc2nc3ccccc3c3nc(CCn4c(C)nc5ccccc54)nn23)cc1F | inconclusive: 63.1 µM [inhibitor, partial curve, poor fit] | 
CCCSc1nnc2n(C)c(=O)c3c(n12)-c1ccccc1CC31CCCCC1 | inconclusive: 56.2 µM [inhibitor, partial curve, poor fit] | 
O=C(c1ccc2c(Cl)c3c(nc2c1)CCCC3)N1CCN(c2ccccc2)CC1 | inconclusive: 17.8 µM [inhibitor, single point] | 

SMILES | Potency | activity change, negative = inhibition
O=C(Cc1ccc(F)cc1)N1CCC(c2nc3c(nnn3Cc3ccc(Cl)cc3)c(=O)[nH]2)CC1 | inconclusive: 50.1 µM [inhibitor, partial curve, poor fit] | 
COc1cc(Cl)c(C)cc1NC(=O)C(C)N1CCN(S(=O)(=O)c2ccccc2C#N)CC1 (stereo not given) |  | inactive: 1.52%
Cc1nnc(NC(=O)c2nc(S(=O)(=O)Cc3ccccc3)ncc2Cl)s1 |  | inactive: 20.5%
O=C(CSc1nc2c(c(=O)n1CCc1ccccc1)SCC2)Nc1cccc2ccccc12 |  | inactive: -4.61%
COc1ccccc1CNC(=O)Cn1ncc2c(=O)oc3ccc(C)cc3c21 | inconclusive: 39.8 µM [inhibitor, partial curve, poor fit] | 
Cc1ccc(Nc2c(-c3ccc(C)cc3)nc3cnccn23)cc1 | inconclusive: 56.2 µM [inhibitor, partial curve, poor fit] | 
Clc1ccc(CCNc2ncnc3c2c(-c2ccccc2)cn3-c2ccccc2)cc1 | inconclusive: 17.8 µM [inhibitor, full curve, poor fit] | 
C=Cc1ccc(CSc2nc(-c3ccc(OC)cc3)nc3c2Cc2c(CO)cnc(C)c2O3)cc1 | inconclusive: 50.1 µM [inhibitor, partial curve, poor fit] | 
N#Cc1cccc(/C=C2\CCOc3cc(Br)ccc3C2=O)c1 | inconclusive: 50.1 µM [inhibitor, partial curve, poor fit] | 
CCN(CC)CCCNc1oc(-c2cccc(C)c2)nc1C#N |  | inactive: -7.33%
Cc1ccc(CN2CCC(CNc3ncnc4onc(-c5ccc(Cl)cc5)c34)CC2)cc1 |  | inactive: -29.2%
COc1ccc(N(CC(=O)NC(C)c2ccccc2)S(=O)(=O)c2c(C)noc2C)cc1 (stereo not given) | inconclusive: 25.1 µM [inhibitor, single point] | 
CCOc1ccccc1CNC(=O)Nc1cn(CC(C)C)c(=O)c2ccccc12 | inconclusive: 79.4 µM [inhibitor, partial curve] | 
COc1cccc(-n2ccnc2SCC(=O)Nc2cccc(C)c2C)c1 | inconclusive: 2.82 µM [inhibitor, full curve, poor fit] | 
Cc1ccc(CN2CCSc3ccc(C(=O)N4CCN(c5cccc(C)c5C)CC4)cc32)cc1 | inconclusive: 50.1 µM [inhibitor, full curve, poor fit] | 
O=C(O)c1cc(-c2ccco2)nc2c(Cl)cccc12 |  | inactive: -13.5%
CC(=O)c1ccc(N2CCN(C(=O)C3CCN(S(=O)(=O)c4cccc5nonc45)CC3)CC2)cc1 | inconclusive: 79.4 µM [inhibitor, partial curve, poor fit] | 
CCOC(=O)c1ccc(N2CCN(C(C)=O)CC2)c(NC(=O)c2ccccc2C)c1 |  | inactive: 1.41%
CCc1ccc(CN(C(=O)c2nc(SC)ncc2Cl)C2CCS(=O)(=O)C2)cc1 (stereo not given) | inconclusive: 44.7 µM [inhibitor, partial curve] | 
CC(=O)c1cc(C(=O)Nc2cccc(C)c2)c2ccccn12 | inconclusive: 50.1 µM [inhibitor, partial curve, poor fit] | 
